From PubChem BioAssay AID488969 (Vanderbilt High Throughput Screening Facility, 2010)
Whole data set: some 110,000 compounds, median “z-score” near -0.1, cut for the highest 2% near 2. This is one part of the list.

Molecular target: Metabotropic glutamate receptor 8 (Rattus norvegicus) (UniProt P70579)
Test: mGluR8 Gi/Go-coupled signaling modulation – cell-based, rat, thallium flux, HTS, primary screen (AID 488969)
Conditions: HEK293 rat mGluR8, GIRK (G protein-gated inwardly rectifying potassium channel) thallium flux, FluoZin2; at 10 µM; stronger effect = higher value; submaximal glutamate (EC20) added with thallium

UniProt P70579, sequence (P70579 whole entry, looked up): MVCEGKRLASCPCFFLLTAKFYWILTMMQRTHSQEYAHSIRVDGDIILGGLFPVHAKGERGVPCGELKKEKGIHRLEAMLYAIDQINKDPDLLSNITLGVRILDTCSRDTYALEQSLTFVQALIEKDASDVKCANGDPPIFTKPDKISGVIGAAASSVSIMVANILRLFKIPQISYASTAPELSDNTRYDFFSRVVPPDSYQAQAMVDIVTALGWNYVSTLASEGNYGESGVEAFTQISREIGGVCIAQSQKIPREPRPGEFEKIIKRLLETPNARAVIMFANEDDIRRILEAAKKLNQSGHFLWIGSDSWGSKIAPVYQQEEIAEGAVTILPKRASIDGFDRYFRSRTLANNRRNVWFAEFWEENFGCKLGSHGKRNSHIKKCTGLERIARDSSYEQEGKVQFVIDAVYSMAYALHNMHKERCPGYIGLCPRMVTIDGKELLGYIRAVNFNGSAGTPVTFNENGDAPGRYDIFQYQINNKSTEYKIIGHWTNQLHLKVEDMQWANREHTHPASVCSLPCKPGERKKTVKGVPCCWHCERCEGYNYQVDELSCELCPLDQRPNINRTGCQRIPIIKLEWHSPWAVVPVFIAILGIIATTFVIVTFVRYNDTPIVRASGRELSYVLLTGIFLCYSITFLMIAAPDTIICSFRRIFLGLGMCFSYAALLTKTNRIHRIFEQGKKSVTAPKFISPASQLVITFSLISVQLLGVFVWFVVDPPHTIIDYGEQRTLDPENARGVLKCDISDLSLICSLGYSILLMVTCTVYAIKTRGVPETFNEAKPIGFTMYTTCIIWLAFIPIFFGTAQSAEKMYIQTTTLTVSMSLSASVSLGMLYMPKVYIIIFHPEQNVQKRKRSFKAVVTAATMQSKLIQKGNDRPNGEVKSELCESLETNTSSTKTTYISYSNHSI

SMILES	z-score
Cc1nc(NC(=O)c2ccc(Cl)cc2)sc1Cc1ccc2c(c1)OCO2	0.784
COc1ccc(OC)c(/C=N/NC(=O)c2cc[n+](CC(=O)c3ccccc3)cc2)c1	0.822
Cc1ccc(CNS(=O)(=O)c2ccc3c(c2)OCCO3)cc1	-0.463
O=C(Nc1cc(Cl)ccc1O)c1snnc1-c1ccccc1	-0.446
COc1ccc(C(=O)c2cc([N+](=O)[O-])ccc2N2CCCC2)cc1	-0.381
CCN1C(=O)C(O)(C2COC(C)(C)CC2=O)c2ccccc21 (stereo unspecified)	-0.866
Cc1cc2c(s1)c1cnn(Cc3ccccc3F)c(=O)c1n2C	0.537
Cc1ccc(C(CC(=O)N2CCOCC2)c2ccco2)cc1 (stereo unspecified)	-0.0603
CCCNC(=O)c1cc2ccccc2c(=O)o1	0.043
Oc1ccccc1CNCCCNCc1ccccc1O	-0.153
CC1(C)SC(=S)N(/N=C/c2ccc(O)cc2)C1N(O)C(=O)Nc1ccc([N+](=O)[O-])cc1 (stereo unspecified)	0.135
COCC(=O)Nc1ccccc1Br	0.0935
CC1=C(C(=O)NCc2ccccc2)C(c2cccs2)n2ncnc2N1 (stereo unspecified)	-0.404
COc1ccc(S(=O)(=O)Nc2ccc(N(C)C(C)=O)cc2)cc1	-0.379
Cc1cccc(-n2ncc3c(NCc4ccccn4)ncnc32)c1	-0.229
CC1(C)Cc2nc3sc(C(=O)NCCO)c(N)c3cc2CO1	0.0334
CCOC(=O)C1=NNC2C(=O)N(C3CCCCC3)C(=O)C12 (stereo unspecified)	0.0294
COc1cccc(CNCCc2c[nH]c3ccccc23)c1OCc1ccccc1F	0.89
CCN(CC)S(=O)(=O)c1cccc(C(=O)Nc2cccnc2)c1	-0.0652
CC(/C=N/n1c(-c2ccc(C)cc2)n[nH]c1=S)=C\c1ccco1	0.323
O=C1O/C(=C/C(=O)N2CCOCC2)c2ccccc21	-0.258
O=C(NNC(=O)C1CC(c2cccnc2)=NO1)Nc1cccc(F)c1 (stereo unspecified)	0.509
CCOC(=O)C1CCc2nc3ccccc3c(=O)n21 (stereo unspecified)	0.125

SMILES	z-score
Cc1ccc(-c2cc(C(=O)O)c3cc(Br)ccc3n2)o1	-0.276
O=S(=O)(Nc1ccc(S(=O)(=O)N2CCCCC2)cc1)c1ccc(Br)s1	-1.33
Cc1cccc(CCNS(=O)(=O)c2ccc(S(=O)(=O)N3CCC(C)CC3)cc2)c1	0.0452
N#CC1=C(S)N(c2ccccc2)C(c2ccc(-c3cc(Cl)ccc3Cl)o2)NC1=O (stereo unspecified)	-0.413
COC(=O)c1ccc(NC(=O)CN(Cc2ccc(Cl)cc2)S(C)(=O)=O)cc1	0.32
Cn1nnc(NC(=O)c2ccc(C(C)(C)C)cc2)n1	-1.22
CC(=O)Nc1nc(C)c(Oc2ccc(Cl)cc2Cl)c(=O)[nH]1	-0.149
CCC(C)(C)NC(=O)C(c1ccc(C)cc1)N(CC1CCCO1)C(=O)CNC(=O)c1cccs1 (stereo unspecified)	-0.118
COc1ccc(NC2=C(C(C)=O)C(c3ccc4c(c3)OCO4)C(C(C)=O)C(C)(O)C2)cc1 (stereo unspecified)	-0.297
CSC1=N/C(=C\c2cccc(F)c2)C(=O)S1	-0.705
COC(=O)c1ccccc1NC(=O)Nc1cccnc1	0.0538
Cc1ccc(C(=O)NCCc2nnc3ccc(SCC(=O)Nc4ccc(C)cc4C)nn23)cc1	0.231
CCCOc1ccc(C(=O)Nc2cc(-c3nn4c(C)nnc4s3)ccc2C)cc1	-0.185
OCCN(CCO)Cc1csc2ccccc12	-0.134
OCCN1CCN(C(=S)c2ccc(Br)cc2)CC1	-0.129
CC(=O)N1C(C(=O)O)CSC1c1cccc(C)c1 (stereo unspecified)	-0.158
Clc1ccc(SCc2cc(Cl)nc(-c3ccccc3)n2)cc1	0.0736
CC1=C(C(=O)Nc2ccc(C)cc2)C(c2cccs2)NC(=S)N1 (stereo unspecified)	-0.316
Cn1c(NC(=O)c2ccc(Cl)cc2Cl)cc(=O)n(C)c1=O	-0.291
Cc1nc2ccccc2c(=O)n1NCc1cc(Br)cs1	-0.577
CCn1c2ccc(F)cc2c2nnc(NN)nc21	-0.0973
COC(=O)c1c(NC(=O)c2ccoc2C)sc2c1CCC2	-0.362
O=C(N1CCOCC1)N1CCN(C(=O)N2CCOCC2)CC1	-0.108

SMILES	z-score
CCc1ccc(C(CC(=O)c2ccc(Cl)cc2)C(=O)O)cc1 (stereo unspecified)	-0.0449
CCN1CC2=C(OC(N)=C(C#N)C2c2cccs2)/C(=C/c2cccs2)C1 (stereo unspecified)	-0.471
C=CCn1c(N)c(C(=O)N2CCN(C)CC2)sc1=S	0.461
Cc1cccc(N=C2NN=C(c3c[nH]c4ccccc34)CS2)c1	0.583
Cc1cccc(NC(=O)CN2C(=O)S/C(=C\c3cc(C)n(C)c3C)C2=O)c1	0.326
CCOC(=O)c1c(C)[nH]c(C(=O)/C(C#N)=C/c2ccc(OC)c(OC)c2)c1C	-0.195
COc1ccc(S(=O)(=O)NCc2ccc(C(=O)N3CCN(c4ccccn4)CC3)cc2)cc1	-0.536
COc1cc(/C=N\N=C2/SC(CC(=O)O)C(=O)N2c2ccc(O)cc2)ccc1O (stereo unspecified)	-0.0934
Cn1c(=O)[nH]c(=O)c2c1nc(N1CCN(CCO)CC1)n2CCSc1nc2ccccc2s1	-0.355
Cc1ccc(-n2nc(C(=O)NCc3ccc(C)o3)c3c4ccccc4n(C)c3c2=O)cc1	-0.398
O=C(CCNc1ccc(F)cc1)c1ccco1	-0.0171
CN(C)c1cccc(C(=O)OCC(=O)Nc2ccccc2-c2ccccc2)c1	-0.796
CCN(CC)CCCNC(=O)C1CCC(=O)N(c2ccc(OC)cc2)C1c1ccc(F)cc1 (stereo unspecified)	-0.129
O=C(CCc1ccccc1)Nc1ccccc1C(=O)NCc1ccco1	-0.244
O=C(Cn1nnc(-c2ccc3c(c2)OCO3)n1)NCc1ccco1	-0.0217
O=C(NCCN1C(=O)S/C(=C\c2ccc(Cl)c(Cl)c2)C1=O)c1cnccn1	-0.143
COC(=O)c1ccc(C(=O)OC)c(NC(=O)CSc2cccc[n+]2[O-])c1	0.589
CC(=O)c1cccc(NC(=O)NCc2ccccn2)c1	-0.613
Cc1ccc(O)c(NC(=O)C2CC(c3c(F)cccc3Cl)=NO2)c1 (stereo unspecified)	-0.208
CC(=O)C1=C(C)Nc2ncnn2C1c1ccccc1OCc1ccccc1 (stereo unspecified)	-1.37
c1ccc2sc(NC3=NCN(C4CCCCCC4)CN3)nc2c1	0.189
O=C(Nc1ccc(S(=O)(=O)Nc2nccc(C3Cc4ccccc4C(=O)O3)n2)cc1)c1ccccc1 (stereo unspecified)	0.132
Nc1c(S(=O)(=O)c2ccccc2)c2nc3ccccc3nc2n1/N=C/c1cccc(O)c1	-0.348

SMILES	z-score
COc1ccc2c(c1)OCC1=C2CCC2(C)C(=O)CC=C12 (stereo unspecified)	-0.184
Cc1ccc2cc(S(=O)(=O)NCCCC(=O)O)ccc2c1	-0.0725
Cc1ccc(C)c(N(C(=O)Cn2nnc3ccccc32)C(C(=O)NC(C)(C)C)c2ccsc2)c1 (stereo unspecified)	-0.191
O=C1/C(=C\c2ccccc2)CCc2c1[nH]c1ccccc21	-0.164
CN(C)CCCN1C(=O)C(=O)/C(=C(/O)c2ccc3c(c2)OCO3)C1c1cccnc1 (stereo unspecified)	-0.332
CCCCNC(=O)c1onc(CSc2cccc3ccccc23)c1C(=O)O	-0.637
CC1CCCCN1C(=O)Cn1cc(/C=C2/C(=O)Nc3ccccc32)c2ccccc21 (stereo unspecified)	0.354
C/C(=C\c1ccccc1)CN1CCN(c2ccccc2)CC1	0.338
CCOc1ccc(C(=O)c2nc3c(n2O)CCCC3)cc1	0.0791
O=C(c1cccs1)N(Cc1ccco1)C1CCS(=O)(=O)C1 (stereo unspecified)	0.102
CCCOC(=O)c1ccc(NC(=O)CSC2=Nc3ccccc3C3CC=NN23)cc1 (stereo unspecified)	-0.315
Cc1cccc[n+]1CC(=O)Nc1ccc([N+](=O)[O-])cc1Cl	0.0506
Clc1ccc(OCCCN2CCCCC2)c(Br)c1	0.275
CCOC(=O)c1cnc2cc3c(cn2c1=O)CCCC3	0.699
Cn1nc(C(F)(F)F)c(C#N)c1N1CCN(c2ccccc2F)CC1	0.012
CCn1cc(/C=N/N=C2\CCC3C4CCc5cc(O)ccc5C4CC[C@]23C)c(C)n1 (stereo partly specified)	0.315
CCN(CC)c1ccc2cc(-c3nnc(-c4ccccc4)o3)c(=O)oc2c1	2.42
O=C(CCN1C(=O)C2C3CC(C(Br)C3Br)C2C1=O)OCC(=O)c1ccccc1 (stereo unspecified)	-0.398
COc1ccc(OC)c(S(=O)(=O)NC(C)(C)C)c1	-0.0387
COc1ccccc1NC(=S)N(Cc1ccco1)Cc1cc2cc(C)ccc2[nH]c1=O	-0.162
Cc1ccc(OCCSCc2nc3ccccc3[nH]2)cc1	-0.234
CCOC(=O)c1c(C)[nH]c(C(=O)NNC(=O)c2ccccc2)c1C	-0.147
CCOC(=O)C1CCCN(C(=O)c2ccc(CS(=O)(=O)c3ccc(Br)cc3)o2)C1 (stereo unspecified)	-0.556

SMILES	z-score
Cc1cccc(N=C2NN=C(c3ccc4c(c3)OCCO4)CS2)c1	-0.084
Cn1c(SCc2cccc3ccccc23)nnc1-c1ccco1	2.15
O=C(COc1ccccc1)Nc1nnc(-c2ccc(Cl)s2)o1	0.405
CCOC(=O)c1ccc(COC(=O)c2cc(=O)[nH]c3ccccc23)o1	-0.0753
C=CCSC1=N/C(=C\c2ccsc2)C(=O)S1	-0.538
Cc1ccc2[nH]c(=O)c(-c3nc4c(C)cccn4c3NCc3ccco3)cc2c1	-0.357
CN(CCNC(=O)CCNC(=O)Cn1ccc2ccccc2c1=O)Cc1ccccc1	-0.00516
COc1ccc(/C=C2/N=C3CCCCCN3C2=O)cc1OC	0.128
COc1cc(NC(=O)CN(C)C2CCCCC2)c(C)cc1[N+](=O)[O-]	-0.669
CCC(=O)Nc1nnc(Cc2ccccc2)s1	0.0398
Cc1nc2sc(C(c3ccc(Br)cc3)N3CC(C)OC(C)C3)c(O)n2n1 (stereo unspecified)	0.745
CN1C(=O)S/C(=C/c2cccnc2)C1=O	0.119
Cc1cc2c(C)nc(Cc3ccccc3)nc2o1	-0.274
CC(c1ccccc1C(O)(c1ccccc1)c1ccccc1)N(C)C (stereo unspecified)	0.412
COc1cc(/C=C/C(=O)Nc2nc3ccc(S(=O)(=O)N(C)C)cc3s2)cc(OC)c1OC	-0.254
COc1ccc(NC(=S)N(CCCN2CCCCC2)Cc2cccs2)cc1	-0.312
Cc1ccc2c(c1)[C@@H]1CN(C)CC[C@@H]1N2S(=O)(=O)c1ccc([N+](=O)[O-])cc1	-0.822
C#CCNc1nc(CC)nc2c1nnn2Cc1ccccc1F	-0.47
CCn1c(SCC(=O)Nc2nc(C)c(C)s2)nnc1-c1cccnc1	0.705
